Test results published in article PMC6919601, “Identification of Plasmodium dipeptidyl aminopeptidase allosteric inhibitors by high throughput screening” (PLoS ONE, 2019).
Screen size: about 110,000 compounds; about 230 (0.21%) showed an effect of 50% or more. Some of the results follow.

The compounds below were run against DPAP1 (Plasmodium falciparum, UniProt Q8IIJ9) (assay: primary screen, percent inhibition; read by cleavage of a fluorogenic dipeptide substrate; higher = more effect of the substance).
Parameters: species or system P. falciparum D10 trophozoite lysates; single well
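Note: 30 min substrate incubation versus DMSO and 10 µM JCP410 controls.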

Sequence of DPAP1 (Q8IIJ9 whole entry, looked up): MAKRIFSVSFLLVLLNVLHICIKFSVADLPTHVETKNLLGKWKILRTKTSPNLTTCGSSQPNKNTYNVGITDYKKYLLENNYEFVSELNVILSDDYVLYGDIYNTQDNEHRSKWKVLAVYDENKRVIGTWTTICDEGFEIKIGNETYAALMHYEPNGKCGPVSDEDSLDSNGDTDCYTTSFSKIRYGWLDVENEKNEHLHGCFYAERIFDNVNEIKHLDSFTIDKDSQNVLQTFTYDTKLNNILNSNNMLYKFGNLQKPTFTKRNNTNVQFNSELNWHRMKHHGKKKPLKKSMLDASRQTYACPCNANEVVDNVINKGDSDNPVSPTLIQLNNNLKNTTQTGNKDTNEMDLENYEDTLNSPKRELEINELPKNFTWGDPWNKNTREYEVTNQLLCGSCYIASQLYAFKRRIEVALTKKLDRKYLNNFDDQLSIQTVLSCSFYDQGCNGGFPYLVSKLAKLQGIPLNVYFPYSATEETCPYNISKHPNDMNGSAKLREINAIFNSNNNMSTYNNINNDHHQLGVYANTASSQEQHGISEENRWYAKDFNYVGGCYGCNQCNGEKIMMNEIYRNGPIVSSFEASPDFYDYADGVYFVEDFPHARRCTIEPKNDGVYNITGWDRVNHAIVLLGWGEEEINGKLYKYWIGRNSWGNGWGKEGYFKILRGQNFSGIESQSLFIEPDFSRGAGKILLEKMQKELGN

Compound	% Inhibition @ 10 uM [%]
COc1ccccc1CNC(=O)c1cccc(Cl)c1	-2.36
COc1cccc(NC(=O)c2cc(C)cc(C)c2)c1	1.84
CC1CCN(c2nc3c(c(=O)n(C)c(=O)n3C)n2CC(=O)c2ccccc2)CC1	0.231
COc1ccc(/C=C/C(=O)Nc2nc(C)c(C)s2)cc1OC	5.94
CCOC(=O)c1c(NC(=O)C(C)Oc2ccc(F)cc2)sc2c1CCCC2 (centres unmarked)	5.41
COc1cc2c(cc1OC)CN(Cc1cccs1)CC2	5.55
O=C(c1cc([N+](=O)[O-])ccc1Cl)N1CCN(c2ccc(Cl)cc2)CC1	1.27
O=S(=O)(c1ccccc1)c1nnn2c1nc(NCCc1ccccc1)c1sccc12	-4.04
CN1CCN(C(=O)c2cccc([N+](=O)[O-])c2)CC1	-1.92
c1cn(CCCNC2CCCCCCC2)cn1	-7.02
c1cc2c(cc1C1CCCCC1)c1c3n2CCNC3CCC1 (centres unmarked)	2.86
CC(C)c1ccc(NC(=O)c2cccc(Cl)c2)cc1	0.634
Cn1c(=O)c2c(nc(SCc3cccc(Br)c3)n2C)n(C)c1=O	2.67
Cc1nc(O)nc(O)c1C1N2CC3(C)CN1CC(c1ccccc1)(C2)C3=O (centres unmarked)	2.89
Cc1cccc(NC(=O)COc2ccc(Cl)cc2Cl)c1	2.38
CCOC(=O)C1=C(CN2CCc3ccccc3C2)NC(=O)NC1c1cccs1 (centres unmarked)	-0.0621
Cc1csc(NC(=O)C(CC(C)C)NS(=O)(=O)c2ccc3nc(C)sc3c2)n1 (centres unmarked)	2.12
COc1ccc(CCNCc2cccc(Cl)c2)cc1OC	-0.467
COc1cccc(C(c2c(O)nc(O)nc2O)N2CCCC(C)C2)c1OC (centres unmarked)	1.86
c1ccc(-c2nc3c4cnn(-c5ccccc5)c4ncn3n2)cc1	-6.09
CCN(CC)CC(=O)Nc1c2c(nc3ccccc13)N(c1cccc(C)c1)CC2	2.22
Cc1cccc(NS(=O)(=O)c2ccc(F)cc2)c1C	0.62
O=C(CCc1ccccc1)Nc1ccc(NS(=O)(=O)c2ccccc2)cc1	-5.13
O=C(c1sc2cccc(Cl)c2c1Cl)N(Cc1ccco1)C1CCS(=O)(=O)C1 (centres unmarked)	-6.5
CC(NC(=O)c1cc(O)nc2ccc(Br)cc12)c1ccccc1 (centres unmarked)	-9.35
COc1ccc(CN2CCN(Cc3ccco3)CC2)cc1OCc1ccccc1	-3.06
COc1cccc2cc(S(=O)(=O)c3ccc(C(C)C)cc3)c(=O)oc12	-3.1
CN1CCN(C(=O)c2ccc(-c3ccccc3)cc2)CC1	2.6
CCn1cc(CNC(=O)c2cc(-c3ccc4c(c3)OCO4)nc3ccccc23)c(C)n1	-7
